# Laboratory results reported in PubChem BioAssay AID1345083 (National Center for Advancing Translational Sciences (NCATS), 2018).
# Hit rate of the full screen: of about 94,000 compounds, about 6,200 (6.6%) were called active. The inconclusive results got no clear call from the source; some entries with a clear call stand among them for comparison. The call rests on the fitted dose curve; in most records, active means well fitted inhibition curve with a large enough effect; inconclusive means small, poorly fitted or top-dose-only effect; inactive means flat fitted curve, though single readings scatter. Potencies of inconclusive entries are doubtful fits and often do not repeat.
# Assay: Cytotoxic Profiling in HEK 293 Cell Line of Diverse Libraries Using Quantitative High-Throughput Screening; further: nearly all actives have a fitted effect of over 60% in size
# Settings: HEK 293 viability, ATP luminescence (CellTiter-Glo), 48-72 h; activity change, negative = cytotoxicity: at 115 µM (top of the series) unless noted; series mostly up to 115 µM
# Outline: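 HEK 293 seeded at 250 cells/well receive compound via pintool. After 48 or 72 hr at 37 degree Celsius, 5% CO2 and 95% humidity, CellTiter-Glo is dispensed and luminescence read following 10 min at room temperature.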
# On the % scale 0 is the no-effect control and ±100 the full control effect; potency means the concentration at half of the fitted maximal effect; tags describe the fitted curve by direction and shape.
SMILES,"activity change, negative = cytotoxicity",outcome,Potency
c1ccc(CCc2nc3nccc(-c4ccccn4)n3n2)cc1,inactive: 8.58%,–,–
COc1ccccc1NC(=O)Cn1c(C)ccc(NS(=O)(=O)c2ccccc2)c1=O,inactive: 1.99%,–,–
O=C(c1cnc2c(c1)CCCC2)N1CCCn2nc(CO)cc2C1,inactive: -3.86%,–,–
CC(C)(CN1CCC(Cc2cccc(C(=O)O)c2)C1)N1CCOCC1 (stereo not drawn),–,inactive,–
COc1cccc(CN(C)S(=O)(=O)c2cccc(C(=O)NCCF)c2)c1,–,–,"inconclusive: 89.1 µM [inhibitor, single point]"
Cc1ccc(CN2CCCCCCNC(=O)[C@@H]3CCC[C@@H]32)s1,–,–,"inconclusive: 50.1 µM [inhibitor, partial curve, poor fit]"
c1ccc2c(c1)CC(n1ccnc1-c1cc3n(n1)CCCNC3)C2,–,–,active: 79.4 µM
CSCCC(=O)N1CCc2[nH]nc(-c3ccc(C(F)(F)F)cc3)c2C1,–,–,"inconclusive: 56.2 µM [inhibitor, partial curve, poor fit]"
CCC(C)NC(=O)C1CCN(Cc2ccccc2-c2ccccc2F)CC1 (stereo not drawn),inactive: -27.1%,–,–
CC(C)CCNC1(Cc2cc(CN3CCOCC3)on2)COC1,–,inactive [at 172 µM],–
Cc1noc(-c2ccc(OC3CN(C(=O)NCC(C)C)C3)cc2)n1,–,–,"inconclusive: 14.1 µM [inhibitor, full curve, poor fit]"
COc1ccc(CN2C(=O)[C@@H]3C[C@@H](CN3CC3CC3)Oc3ccccc32)cc1,–,–,"inconclusive: 89.1 µM [inhibitor, partial curve, poor fit]"
COCCN[C@@H]1C[C@@H]2c3[nH]c4ccccc4c3C[C@@H](C(=O)OC)N2[C@H](c2ccc(C(C)C)cc2)C1,–,–,"inconclusive: 17.8 µM [inhibitor, full curve, poor fit]"
CCS(=O)(=O)N1CCOc2ccc(CN3CCc4ccccc4C3)cc2C1,–,–,"inconclusive: 89.1 µM [inhibitor, single point]"
Cn1cccc1CN1CCC(N2CCNC2=O)CC1,–,inactive [at 172 µM],–
O=C(NCc1ccco1)c1cc2c(s1)CCN(C(=O)c1ccc(Cl)cc1)C2,–,–,"inconclusive: 50.1 µM [inhibitor, partial curve, poor fit]"
CCOc1ccccc1NC(=O)N1CCC(Cc2nncn2Cc2ccccc2)C1 (stereo not drawn),inactive: 2.97%,–,–
CC1=C[C@@H](CN2CCN(c3cnccn3)CC2)[C@H](C(C)C)C[C@H]1Cc1nnc(-c2cccnc2)o1,–,–,active: 35.5 µM
CCc1cc(=O)n(CC(=O)NCc2ccc(OC)c(OC)c2)c(-c2ccccc2)n1,–,–,"inconclusive: 100 µM [inhibitor, single point]"
O=C(c1ccc(Cl)cc1)N1CCC2(C1)C(=O)N(c1ccccc1)c1ccccc12 (stereo not drawn),–,–,"inconclusive: 50.1 µM [inhibitor, partial curve, poor fit]"
O=C(NCc1cccnc1)c1nc2cccnc2n(C2CC2)c1=O,inactive: 1.12% [at 172 µM],–,–
CCN(CCc1nc2ccc(C)cc2[nH]1)C(=O)c1ccccc1C1CCNC1 (stereo not drawn),inactive: -5.19%,–,–

SMILES,"activity change, negative = cytotoxicity",outcome,Potency
CCOC(=O)[C@@H]1CN(C(=O)Nc2ccccc2)[C@H]2c3ccc(OC)cc3O[C@@H]12,–,–,"inconclusive: 50.1 µM [inhibitor, partial curve, poor fit]"
CCOc1ccc(CC(=O)N2CCN(c3cc(-c4ccc(Cl)cc4)[nH]n3)CC2)cc1,–,–,"inconclusive: 12.6 µM [inhibitor, full curve, poor fit]"
CCOC(=O)C1=CN(CC(=O)Nc2c(C)cccc2CC)S(=O)(=O)N=C1C,–,–,"inconclusive: 56.2 µM [inhibitor, partial curve, poor fit]"
COC[C@H]1CCCN1Cc1nc(C2(O)CCN(C3CCN(C)CC3)CC2)cs1,–,–,"inconclusive: 100 µM [inhibitor, partial curve, poor fit]"
O=C(c1cccs1)N1CCN(Cc2ccc(=O)n(CC3CC3)c2)CC1,–,–,"inconclusive: 31.6 µM [inhibitor, partial curve, poor fit]"
O=C1CO[C@H]2CCN(Cc3ccccc3)CC[C@@H]2N1c1ccccc1,–,–,"inconclusive: 100 µM [inhibitor, partial curve, poor fit]"
O=C(NCc1cccs1)c1cc(-c2ccccc2)c2nncn2n1,–,–,"inconclusive: 89.1 µM [inhibitor, single point]"
O=C(c1ccc(Cl)cc1)N1CCC2(C1)C(=O)N(Cc1ccccc1)c1ccccc12 (stereo not drawn),–,–,"inconclusive: 50.1 µM [inhibitor, partial curve, poor fit]"
CC1=C(C(=O)Nc2ccccc2)C(c2cc(C)ccc2C)N2C(CC(=O)NC(C)C)=CSC2=N1 (stereo not drawn),–,–,active: 39.8 µM
Cc1cn2nc(C(=O)NCc3ccco3)cc2c(=O)[nH]1,inactive: -1.95%,–,–
Cc1onc(-c2cnn(C)c2NCc2ccccc2)c1C(=O)N1CCC(c2ccccc2)CC1,–,–,"inconclusive: 50.1 µM [inhibitor, partial curve, poor fit]"
COc1cccc(NC(=O)COc2ccc(-c3nnc4n3CCCC4)cc2)c1,inactive: 3.25%,–,–
Cc1ccc(-c2cn3cc(C(=O)N4CCCCC4)nc3s2)cc1,–,–,"inconclusive: 112 µM [inhibitor, partial curve, poor fit]"
O=C(NCC1Cn2cccc2CN1Cc1ccccc1)c1n[nH]c2ccccc12 (stereo not drawn),–,–,"inconclusive: 89.1 µM [inhibitor, single point]"
N#Cc1cccc(N2CCN(Cc3ccc(F)c(Cl)c3F)CC2)n1,–,–,"inconclusive: 79.4 µM [inhibitor, partial curve, poor fit]"
COCC1CN(C)CC12CCN(C(=O)c1nccc3ccccc13)CC2 (stereo not drawn),–,–,"inconclusive: 89.1 µM [inhibitor, single point]"
CNC(=O)c1cc(C2CC2)nc2c1c(C1CCCN(C(=O)C3CC3)C1)nn2C (stereo not drawn),inactive: -7.4%,–,–
COc1ccccc1-c1cn2c(n1)CO[C@@H](CNC(=O)NC(C)C)C2,inactive: -10.3% [at 172 µM],–,–
Cc1cnc(C2CC2)n1C1CCN(C(=O)N(C)C)CC1,–,–,"inconclusive: 89.1 µM [inhibitor, single point]"
COc1ccc(-c2cnc3[nH]cc(CC(=O)NCCN(C)C)c3c2)cc1,–,–,active: 100 µM
Cc1nn(-c2ccccc2)c2c1C(C)N(C1CCN(C(=O)c3ccc(Cl)cc3)C1)C2=O (stereo not drawn),–,–,"inconclusive: 11.2 µM [inhibitor, full curve, poor fit]"
